Test results taken from publication PMC9911399, “Two distinct binding modes provide the RNA-binding protein RbFox with extraordinary sequence specificity”.
Substitutions are numbered along the chain they refer to; changes in the protein carry UniProt numbers. The list shows a part of the results.

T1: RBFOX1 RRM (Homo sapiens, UniProt Q9NWB1 109-208)
T1 sequence: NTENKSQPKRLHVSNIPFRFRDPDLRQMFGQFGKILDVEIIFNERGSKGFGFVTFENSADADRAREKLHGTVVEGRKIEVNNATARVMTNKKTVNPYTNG

B1: GCCCGGU (DNA:RNA)
RNA: GGGAGACCGGAAUUCAGAUUGUCCGCCCGGUUUAAAUCCCGUCGUAGCCACCA
DNA 1: CAATCTGAATTCCGGTCTCCC
DNA 2: TGGTGGCTACGACGGGATT
B2: GUUGUCG (DNA:RNA)
RNA: B1 RNA with C26U, C27U, C28G, G29U, G30C, U31G
DNA 1: CAATCTGAATTCCGGTCTCCC
DNA 2: TGGTGGCTACGACGGGATT
B3: GUUAUUC (DNA:RNA)
RNA: B1 RNA with C26U, C27U, C28A, G29U, G30U, U31C
DNA 1: CAATCTGAATTCCGGTCTCCC
DNA 2: TGGTGGCTACGACGGGATT
B4: GGUUUCG (DNA:RNA)
RNA: B1 RNA with C26G, C27U, C28U, G29U, G30C, U31G
DNA 1: CAATCTGAATTCCGGTCTCCC
DNA 2: TGGTGGCTACGACGGGATT
B5: AAGUGCU (DNA:RNA)
RNA: B1 RNA with G25A, C26A, C27G, C28U, G30C
DNA 1: CAATCTGAATTCCGGTCTCCC
DNA 2: TGGTGGCTACGACGGGATT
B6: GCGGCUC (DNA:RNA)
RNA: B1 RNA with C27G, C28G, G29C, G30U, U31C
DNA 1: CAATCTGAATTCCGGTCTCCC
DNA 2: TGGTGGCTACGACGGGATT
B7: UGCGAUC (DNA:RNA)
RNA: B1 RNA with G25U, C26G, C28G, G29A, G30U, U31C
DNA 1: CAATCTGAATTCCGGTCTCCC
DNA 2: TGGTGGCTACGACGGGATT
B8: CACGUCU (DNA:RNA)
RNA: B1 RNA with G25C, C26A, C28G, G29U, G30C
DNA 1: CAATCTGAATTCCGGTCTCCC
DNA 2: TGGTGGCTACGACGGGATT
B9: CACCCUC (DNA:RNA)
RNA: B1 RNA with G25C, C26A, G29C, G30U, U31C
DNA 1: CAATCTGAATTCCGGTCTCCC
DNA 2: TGGTGGCTACGACGGGATT
B10: UUAGUCA (DNA:RNA)
RNA: GGGAGACCGGAAUUCAGAUUGUCCUUAGUCAUUAAAUCCCGUCGUAGCCACCA
DNA 1: CAATCTGAATTCCGGTCTCCC
DNA 2: TGGTGGCTACGACGGGATT
B11: ACAUGUU (DNA:RNA)
RNA: B1 RNA with G25A, C27A, C28U, G30U
DNA 1: CAATCTGAATTCCGGTCTCCC
DNA 2: TGGTGGCTACGACGGGATT
B12: AACCGGA (DNA:RNA)
RNA: B1 RNA with G25A, C26A, U31A
DNA 1: CAATCTGAATTCCGGTCTCCC
DNA 2: TGGTGGCTACGACGGGATT
B13: AGUGGAU (DNA:RNA)
RNA: B1 RNA with G25A, C26G, C27U, C28G, G30A
DNA 1: CAATCTGAATTCCGGTCTCCC
DNA 2: TGGTGGCTACGACGGGATT
B14: UAAACAC (DNA:RNA)
RNA: B10 RNA with U26A, G28A, U29C, C30A, A31C
DNA 1: CAATCTGAATTCCGGTCTCCC
DNA 2: TGGTGGCTACGACGGGATT
B15: GGCUGAU (DNA:RNA)
RNA: B1 RNA with C26G, C28U, G30A
DNA 1: CAATCTGAATTCCGGTCTCCC
DNA 2: TGGTGGCTACGACGGGATT
B16: AGGUAGU (DNA:RNA)
RNA: B1 RNA with G25A, C26G, C27G, C28U, G29A
DNA 1: CAATCTGAATTCCGGTCTCCC
DNA 2: TGGTGGCTACGACGGGATT
B17: CGGUUUU (DNA:RNA)
RNA: B1 RNA with G25C, C26G, C27G, C28U, G29U, G30U
DNA 1: CAATCTGAATTCCGGTCTCCC
DNA 2: TGGTGGCTACGACGGGATT
B18: AAACGCA (DNA:RNA)
RNA: B10 RNA with U25A, U26A, G28C, U29G
DNA 1: CAATCTGAATTCCGGTCTCCC
DNA 2: TGGTGGCTACGACGGGATT
B19: GAUCGAC (DNA:RNA)
RNA: B1 RNA with C26A, C27U, G30A, U31C
DNA 1: CAATCTGAATTCCGGTCTCCC
DNA 2: TGGTGGCTACGACGGGATT
B20: AUCAGUG (DNA:RNA)
RNA: B1 RNA with G25A, C26U, C28A, G30U, U31G
DNA 1: CAATCTGAATTCCGGTCTCCC
DNA 2: TGGTGGCTACGACGGGATT
B21: AUGAUUC (DNA:RNA)
RNA: B10 RNA with U25A, A27G, G28A, C30U, A31C
DNA 1: CAATCTGAATTCCGGTCTCCC
DNA 2: TGGTGGCTACGACGGGATT
B22: CUGCGUU (DNA:RNA)
RNA: B1 RNA with G25C, C26U, C27G, G30U
DNA 1: CAATCTGAATTCCGGTCTCCC
DNA 2: TGGTGGCTACGACGGGATT
B23: UGAGUCA (DNA:RNA)
RNA: B10 RNA with U26G
DNA 1: CAATCTGAATTCCGGTCTCCC
DNA 2: TGGTGGCTACGACGGGATT
B24: UAGACCC (DNA:RNA)
RNA: B10 RNA with U26A, A27G, G28A, U29C, A31C
DNA 1: CAATCTGAATTCCGGTCTCCC
DNA 2: TGGTGGCTACGACGGGATT
B25: AUGCGUA (DNA:RNA)
RNA: B1 RNA with G25A, C26U, C27G, G30U, U31A
DNA 1: CAATCTGAATTCCGGTCTCCC
DNA 2: TGGTGGCTACGACGGGATT
B26: CUCAAAC (DNA:RNA)
RNA: B1 RNA with G25C, C26U, C28A, G29A, G30A, U31C
DNA 1: CAATCTGAATTCCGGTCTCCC
DNA 2: TGGTGGCTACGACGGGATT
B27: AAUAGCG (DNA:RNA)
RNA: B1 RNA with G25A, C26A, C27U, C28A, G30C, U31G
DNA 1: CAATCTGAATTCCGGTCTCCC
DNA 2: TGGTGGCTACGACGGGATT
B28: CUGAAUA (DNA:RNA)
RNA: B10 RNA with U25C, A27G, G28A, U29A, C30U
DNA 1: CAATCTGAATTCCGGTCTCCC
DNA 2: TGGTGGCTACGACGGGATT
B29: CUGGUCA (DNA:RNA)
RNA: B10 RNA with U25C, A27G
DNA 1: CAATCTGAATTCCGGTCTCCC
DNA 2: TGGTGGCTACGACGGGATT
B30: AGAUAAG (DNA:RNA)
RNA: B10 RNA with U25A, U26G, G28U, U29A, C30A, A31G
DNA 1: CAATCTGAATTCCGGTCTCCC
DNA 2: TGGTGGCTACGACGGGATT
B31: ACUCUAG (DNA:RNA)
RNA: B1 RNA with G25A, C27U, G29U, G30A, U31G
DNA 1: CAATCTGAATTCCGGTCTCCC
DNA 2: TGGTGGCTACGACGGGATT

What follows are binders tested against T1, RBFOX1 RRM (assay: EMSA; HiTS-Eq, 1 nM pool, 10 min; buffer printed only for the single-RNA assays: 10 mM Tris pH 7.5, 150 mM NaCl, 3.4 mM EDTA, 0.001% NP-40, 30 C). Conditions: tags: His6 N-terminal (pET28a); label: 5' 32P.
Procedure, shortened: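 These values rest on relative association constants, computed from read-count changes of each RNA species versus the control reaction and normalised to the cognate motif. Reads came from free RNA recovered by 8% native PAGE after purified RbFox RRM (wild type or mutant) at increasing concentrations was equilibrated for 10 min in 50 µL with 1 nM of a 5′-radiolabelled pool with 7 randomized nucleotides and DNA-annealed flanks.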

Row | Binder | binding signal
1 | B1 | 0.0179 KA relative to UGCAUGU
2 | B2 | 0.0223 KA relative to UGCAUGU
3 | B3 | 0.0122 KA relative to UGCAUGU
4 | B4 | 0.0173 KA relative to UGCAUGU
5 | B5 | 0.0139 KA relative to UGCAUGU
6 | B6 | 0.0224 KA relative to UGCAUGU
7 | B7 | 0.0166 KA relative to UGCAUGU
8 | B8 | 0.00642 KA relative to UGCAUGU
9 | B9 | 0.00232 KA relative to UGCAUGU
10 | B10 | 0.00946 KA relative to UGCAUGU
11 | B11 | 0.00357 KA relative to UGCAUGU
12 | B12 | 0.00248 KA relative to UGCAUGU
13 | B13 | 0.00554 KA relative to UGCAUGU
14 | B14 | 0.000762 KA relative to UGCAUGU
15 | B15 | 0.0209 KA relative to UGCAUGU
16 | B16 | 0.0106 KA relative to UGCAUGU

Row | Binder | binding signal
17 | B17 | 0.0157 KA relative to UGCAUGU
18 | B18 | 0.00682 KA relative to UGCAUGU
19 | B19 | 0.0165 KA relative to UGCAUGU
20 | B20 | 0.00865 KA relative to UGCAUGU
21 | B21 | 0.0121 KA relative to UGCAUGU
22 | B22 | 0.0126 KA relative to UGCAUGU
23 | B23 | 0.0145 KA relative to UGCAUGU
24 | B24 | 0.00493 KA relative to UGCAUGU
25 | B25 | 0.0103 KA relative to UGCAUGU
26 | B26 | 0.00277 KA relative to UGCAUGU
27 | B27 | 0.00691 KA relative to UGCAUGU
28 | B28 | 0.00691 KA relative to UGCAUGU
29 | B29 | 0.0175 KA relative to UGCAUGU
30 | B30 | 0.0073 KA relative to UGCAUGU
31 | B31 | 0.00253 KA relative to UGCAUGU
